Some of the results follow.

This test has as its target T1, OsWOX13 (Oryza sativa, UniProt Q5QMM3 1-267).
T1 sequence: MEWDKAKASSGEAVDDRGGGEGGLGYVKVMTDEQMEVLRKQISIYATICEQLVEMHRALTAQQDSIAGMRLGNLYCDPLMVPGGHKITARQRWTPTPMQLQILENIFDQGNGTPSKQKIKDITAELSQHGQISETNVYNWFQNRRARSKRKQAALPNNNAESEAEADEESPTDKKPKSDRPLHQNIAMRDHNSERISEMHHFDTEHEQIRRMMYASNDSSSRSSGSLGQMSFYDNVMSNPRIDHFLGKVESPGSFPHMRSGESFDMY
The test is described as follows: protein-binding microarray (RPBM); PBS, 2% BSA, 51.3 ng/ul salmon testes DNA, 50 uM zinc acetate, 200 nM TF, 25 C, 1 h; high values mean tight binding. To be noted: protein: recombinant; tags: N-terminal polyhistidine and DsRed monomer fusion (pET32a); label: CyDye5-dUTP incorporated in the synthesized complementary strand; 3' TTTTT single-stranded linker to array surface; dsDNA, one strand shown. A digest of the protocol:
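For the binding signal, per-feature fluorescence intensity was read in arbitrary units on an Axon 4000B scanner. Before scanning, a 2% BSA-blocked custom Agilent array made double-stranded with Cy5-dUTP was washed after 1 h at 25 °C with 200 nM protein and 50 µM zinc acetate. The proteins were Ni–NTA-purified transcription factors with N-terminal polyhistidine and DsRed fusions, expressed in E. coli BL21-CodonPlus.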
On to “GAATTGGCTATTAGATTGACTATAGATGAATTGAAGTTAGCGGAGTCACCTAGTGCAG”, for which the binding signal is 15800 fluorescence intensity (a.u.).
Then “TTGCTAATGATGAATTAATTAGGCTTAATAAATTCGTCTCCGGAGTCACCTAGTGCAG”, with 28300 fluorescence intensity (a.u.); and “ATTTTCTTGTGATTTGATTCATCATCAAATGTTCATTAAGCGGAGTCACCTAGTGCAG”, with 5680 fluorescence intensity (a.u.); and “ATACTAATTTATAGTTGATGATAACATAATACGAAATGAACGGAGTCACCTAGTGCAG”, with 21400 fluorescence intensity (a.u.).
Then “TTGGTGTAATTGACATGCGGGCCCACAATTTTATTATTTTCGGAGTCACCTAGTGCAG”, with 23800 fluorescence intensity (a.u.); and “GTGACAGACTGACAGTGTGAGTGTCAAGAAATGACTGTGACGGAGTCACCTAGTGCAG”, with 15600 fluorescence intensity (a.u.); and “ATTTTAAACTAATATTTGACTGCATCATGCTGGTTTTAATCGGAGTCACCTAGTGCAG”, with 5890 fluorescence intensity (a.u.).
The value for “GCTTTCCAACACAAATTAGATTTGTTTGACGACATTTATCCGGAGTCACCTAGTGCAG” was 8660 fluorescence intensity (a.u.); that for “TAATATTTTATTTAATTATTTAAGTCACATGCAAATGATGCGGAGTCACCTAGTGCAG” was 5200 fluorescence intensity (a.u.).
With “TCAAATCAAATTTGAATCAAAATCTAGCCAAGATTTGTATCGGAGTCACCTAGTGCAG”, the binding signal is 14600 fluorescence intensity (a.u.).
Then “TTATAAATTATTAAGACAACTATTATGGTATTATCAAATCCGGAGTCACCTAGTGCAG”, with 3800 fluorescence intensity (a.u.).
Then “TTTGTTTAATCAGTTTATTATTAGATAATGCAAGCATGCCCGGAGTCACCTAGTGCAG”, with 6750 fluorescence intensity (a.u.); and “CTGTAGAATTAATGGATGGTTAATCCGGGCTTAATTGGTTCGGAGTCACCTAGTGCAG”, with 9750 fluorescence intensity (a.u.); and “AGAGGAATTAATTATGCAAAACATGGGCCACAAATTGAATCGGAGTCACCTAGTGCAG”, with 16500 fluorescence intensity (a.u.).
The value for “CTTCAAAATTTTGATACTAACTGGCTAAGTAATCATCCTACGGAGTCACCTAGTGCAG” was 9340 fluorescence intensity (a.u.).
Consider “TTGACATGTCAAATTGGATATACGAACACACATTTGAAGTCGGAGTCACCTAGTGCAG”, for which the binding signal was 11500 fluorescence intensity (a.u.).
As to “TTAGGAGATACTATTACTAATTGAGTGTGTTACTCAACGTCGGAGTCACCTAGTGCAG”, the binding signal is 5520 fluorescence intensity (a.u.).
The value for “TCTGTAATTACTATTATTTTCTAAATTTATTTGCATATGACGGAGTCACCTAGTGCAG” was 21500 fluorescence intensity (a.u.); that for “TATAGTTAAATAATTGGCCATGTATTGATATGGTGCAAATCGGAGTCACCTAGTGCAG” was 11700 fluorescence intensity (a.u.); that for “TTCTTGCTGGATTGACGATTCTGCAGTCTCGTGGCTCAGACGGAGTCACCTAGTGCAG” was 6440 fluorescence intensity (a.u.).
The value for “CACCAACTAATTTCATTGGAATTTTGTGGGAGGTGGAGGGCGGAGTCACCTAGTGCAG” was 9810 fluorescence intensity (a.u.); that for “ACGGATAGATAGGAAAACTTACTCCTGCTGCGCATGCACACGGAGTCACCTAGTGCAG” was 8880 fluorescence intensity (a.u.).
Turning to “CGATTATGATTATGTTATACGGTTATACCATTGGTTGCAACGGAGTCACCTAGTGCAG”, the binding signal was 24800 fluorescence intensity (a.u.).
The value for “GTTATTTTAATTTATTTTCCTGGTTGTAATACCATGTTAGCGGAGTCACCTAGTGCAG” was 10700 fluorescence intensity (a.u.); that for “GAGAAACGCCATTGATTGGTGGAGAGAGAGAGAGAGAGAACGGAGTCACCTAGTGCAG” was 16200 fluorescence intensity (a.u.); that for “TACTCATATAATTTTAATGGGACACGCTGATCCCGTTCGTCGGAGTCACCTAGTGCAG” was 5040 fluorescence intensity (a.u.).
Then “GCCTATTCCATTAATTGACCGGGATTGCCAAGTGTCCCCGCGGAGTCACCTAGTGCAG”, with 28800 fluorescence intensity (a.u.); and “TATAATTGAAATGTAATTATATTGTAACTACATTTAACTGCGGAGTCACCTAGTGCAG”, with 44400 fluorescence intensity (a.u.).
Then “CTTGCAATGATTGCGATGAAGCCTGGAATGTATCTGGCTGCGGAGTCACCTAGTGCAG”, with 22300 fluorescence intensity (a.u.); and “TCTCATTGACAAGCCAACAAACGCACAGTGTGACAAGCTCCGGAGTCACCTAGTGCAG”, with 3600 fluorescence intensity (a.u.).
Consider “TAAATTTAATAAACAGCTGGAAAGATTTCCTCTCCAAAATCGGAGTCACCTAGTGCAG”, for which the binding signal was 4480 fluorescence intensity (a.u.).
The value for “TGTGGTTTATTTTATGATTAGAAAATTTTAAGCACCACTTCGGAGTCACCTAGTGCAG” was 8180 fluorescence intensity (a.u.); that for “CTTTAGACTAAATTATATTAGCCTTGACCCTGATAATTCACGGAGTCACCTAGTGCAG” was 8190 fluorescence intensity (a.u.); that for “CAGCGTAATTAATTGACCTCGGTCTCCTTGCTCCCCTATCCGGAGTCACCTAGTGCAG” was 38300 fluorescence intensity (a.u.).
Regarding “TGCAGTTAATTAATTACTTGCATTTAATTATACGCCTCGCCGGAGTCACCTAGTGCAG”, the binding signal was 35600 fluorescence intensity (a.u.).
Then “ACATTTTGATTTGCACTTGCAATTCCTACCTGAACTTGAGCGGAGTCACCTAGTGCAG”, with 28400 fluorescence intensity (a.u.); and “TGTTTAATGGACTGGGCCAAAATACAAATATATAAATTGCCGGAGTCACCTAGTGCAG”, with 7430 fluorescence intensity (a.u.).
Then “CCAAAGTATTTACAGATTGACCGCAATATACAATTGATCTCGGAGTCACCTAGTGCAG”, with 3810 fluorescence intensity (a.u.).
The value for “GAAGATGATTACCTTGGCGGCGCTGGCGACGATGCACCTCCGGAGTCACCTAGTGCAG” was 12300 fluorescence intensity (a.u.); that for “GAACAGGTAATTTAAAATTGATGGAGTTCATAGGATGTCACGGAGTCACCTAGTGCAG” was 24200 fluorescence intensity (a.u.).
Turning to “TATATATATATATATAAACAGATGAGTACTACAGTACCAACGGAGTCACCTAGTGCAG”, the binding signal was 3880 fluorescence intensity (a.u.).
Then “TACTCATTGATTGCAGGTTCCTTGAAATTTACTGGTAGAGCGGAGTCACCTAGTGCAG”, with 33500 fluorescence intensity (a.u.).
Then “AATGATAACATGAAAATTTCATAGTAATACGAAGATGTTCCGGAGTCACCTAGTGCAG”, with 6230 fluorescence intensity (a.u.); and “TGGATGAATGAATGGATATATTGACGTATATATACGAGTCCGGAGTCACCTAGTGCAG”, with 7940 fluorescence intensity (a.u.).
The value for “CCACGGGATTGCAGAGATTGCAATCGAATCAAACAACCAACGGAGTCACCTAGTGCAG” was 5620 fluorescence intensity (a.u.); that for “CTCATTTCAAATTAACTGTAGATGTTGATTAGGTTTATTTCGGAGTCACCTAGTGCAG” was 16900 fluorescence intensity (a.u.); that for “TGGTTCTGATTTTATTTCCATCGTAATTTATTTTCTAATGCGGAGTCACCTAGTGCAG” was 7830 fluorescence intensity (a.u.).
Regarding “GGTGATGATTGCCGGAGTTGGAGCTGCGACTTGAAGGACACGGAGTCACCTAGTGCAG”, the binding signal was 30700 fluorescence intensity (a.u.).
Then “CATTAATTGGCCGTTGAAATTTTCTCGCCGCGAACGAAGACGGAGTCACCTAGTGCAG”, with 34500 fluorescence intensity (a.u.); and “GTAAAATTGATGTTGCTAGATTTATTATTAAAATACTATCCGGAGTCACCTAGTGCAG”, with 21300 fluorescence intensity (a.u.).
On to “TTGGATGTGATGTGATGTAATGGAAAGTTAAAAGTTTGGACGGAGTCACCTAGTGCAG”, for which the binding signal is 4270 fluorescence intensity (a.u.).
As to “AAAATTAACCTAACCATGGATTAAATATCTAATGATGGGTCGGAGTCACCTAGTGCAG”, the binding signal is 6560 fluorescence intensity (a.u.).
The value for “TCGAATTATCATCCGTTTGTGTTCTTGTCAGTTACTCCACCGGAGTCACCTAGTGCAG” was 3220 fluorescence intensity (a.u.); that for “GCATTTGATTGTGCAAGTTGGGTTTACAGCTGCACTTATACGGAGTCACCTAGTGCAG” was 4470 fluorescence intensity (a.u.).

The values above are taken from PMC7819943, “Rice protein-binding microarrays: a tool to detect cis-acting elements near promoter regions in rice”.
